In the supplement of paper PMC13016719:
MIC of multidrug-resistant clinical P. aeruginosa isolates by reference broth microdilution, Sensititre or Phoenix panel; µg/mL of the β-lactam, with the inhibitor fixed at 4 µg/mL where named; higher = less susceptible; each panel covers only a few steps. No active / inactive call per row; the paper applies CLSI M100 breakpoints. The methods often differ by one or more steps on the same isolate. Several isolates can come from one patient. PDC is the chromosomal AmpC β-lactamase of the species; the number names its allele. Isolates are numbered anew.

Legend:
Assay in all cases: Reference broth microdilution (once per isolate) and two commercial panels; inhibitor fixed at 4 µg/mL.
ceftazidime = compound: CC(C)(O/N=C(\C(=O)N[C@@H]1C(=O)N2C(C(=O)[O-])=C(C[n+]3ccccc3)CS[C@H]12)c1csc(N)n1)C(=O)O [ceftazidime] (with: avibactam 4 µg/mL)
ceftolozane = compound: Cn1c(N)c(NC(=O)NCCN)c[n+]1CC1=C(C(=O)[O-])N2C(=O)[C@@H](NC(=O)/C(=N\OC(C)(C)C(=O)O)c3nsc(N)n3)[C@H]2SC1 [ceftolozane] (with: tazobactam 4 µg/mL)
imipenem = compound: C[C@@H](O)[C@H]1C(=O)N2C(C(=O)O)=C(SCCNC=N)C[C@H]12 [imipenem]; conditions: reference broth microdilution

Test System	MIC (ceftazidime; BD Phoenix panel) [µg/mL]	MIC (ceftazidime; Sensititre panel) [µg/mL]	MIC (ceftazidime; reference broth microdilution) [µg/mL]	MIC (ceftolozane; BD Phoenix panel) [µg/mL]	MIC (ceftolozane; Sensititre panel) [µg/mL]	MIC (ceftolozane; reference broth microdilution) [µg/mL]	MIC (imipenem) [µg/mL]
Pseudomonas aeruginosa isolate 1 (PDC allele: blaPDC-1)	4	≤ 4	≤ 4	2	2	2	4
Pseudomonas aeruginosa isolate 2 (PDC allele: blaPDC-5)	8	–	≤ 4	2	–	2	–
Pseudomonas aeruginosa isolate 3 (PDC allele: blaPDC-3)	2	–	≤ 4	≤ 1	–	2	≤ 1
Pseudomonas aeruginosa isolate 4 (PDC allele: blaPDC-12)	> 8	–	16	2	–	4	2
Pseudomonas aeruginosa isolate 5 (PDC allele: blaPDC-8)	8	16	≥ 32	≤ 1	4	8	> 8
Pseudomonas aeruginosa isolate 6 (PDC allele: blaPDC-24)	4	16	16	2	8	4	4
Pseudomonas aeruginosa isolate 7 (PDC allele: blaPDC, ftsI change: ftsI_R504C)	> 8	–	16	> 8	–	> 8	≤ 1
Pseudomonas aeruginosa isolate 8 (PDC allele: blaPDC-1)	> 8	–	≥ 32	2	–	4	–
Pseudomonas aeruginosa isolate 9 (PDC allele: blaPDC-8)	2	–	≤ 4	≤ 1	–	2	8
Pseudomonas aeruginosa isolate 10 (PDC allele: blaPDC-34)	4	–	≤ 4	2	–	2	8
Pseudomonas aeruginosa isolate 11 (PDC allele: blaPDC-31)	8	–	16	≤ 1	–	8	2
Pseudomonas aeruginosa isolate 12 (PDC allele: blaPDC-34)	8	–	8	2	–	2	≤ 1
Pseudomonas aeruginosa isolate 13 (PDC allele: blaPDC-31)	8	–	8	≤ 1	–	≤ 1	–
Pseudomonas aeruginosa isolate 14 (PDC allele: blaPDC-1, ftsI change: ftsI_R504C)	> 8	–	≥ 32	2	–	≥ 16	> 8
Pseudomonas aeruginosa isolate 15 (PDC allele: blaPDC-5)	> 8	–	16	2	–	2	2
Pseudomonas aeruginosa isolate 16 (PDC allele: blaPDC-30)	4	≤ 4	≤ 4	2	2	≤ 1	4
Pseudomonas aeruginosa isolate 17 (ESBL gene: blaGES-1, PDC allele: blaPDC-35)	8	–	≤ 4	> 8	–	≥ 16	≤ 1
Pseudomonas aeruginosa isolate 18 (PDC allele: blaPDC-24)	8	≤ 4	≤ 4	4	≤ 1	2	> 8
Pseudomonas aeruginosa isolate 19 (PDC allele: blaPDC-46)	4	–	≤ 4	≤ 1	–	≤ 1	≤ 1
Pseudomonas aeruginosa isolate 20 (PDC allele: blaPDC-3)	4	–	8	2	–	8	4

Test System	MIC (ceftazidime; BD Phoenix panel) [µg/mL]	MIC (ceftazidime; Sensititre panel) [µg/mL]	MIC (ceftazidime; reference broth microdilution) [µg/mL]	MIC (ceftolozane; BD Phoenix panel) [µg/mL]	MIC (ceftolozane; Sensititre panel) [µg/mL]	MIC (ceftolozane; reference broth microdilution) [µg/mL]	MIC (imipenem) [µg/mL]
Pseudomonas aeruginosa isolate 21 (PDC allele: blaPDC-3)	4	≤ 4	≤ 4	≤ 1	≤ 1	≤ 1	≤ 1
Pseudomonas aeruginosa isolate 22 (ESBL gene: blaRSC1, PDC allele: blaPDC-3)	> 8	–	8	≤ 1	–	≤ 1	> 8
Pseudomonas aeruginosa isolate 23 (PDC allele: blaPDC-8)	2	–	≤ 4	≤ 1	–	2	> 8
Pseudomonas aeruginosa isolate 24 (PDC allele: blaPDC-15)	8	–	16	≤ 1	–	4	≤ 1
Pseudomonas aeruginosa isolate 25 (PDC allele: blaPDC-30)	4	–	≤ 4	≤ 1	–	≤ 1	–
Pseudomonas aeruginosa isolate 26 (PDC allele: blaPDC-30)	2	≤ 4	≤ 4	2	4	4	≤ 1
Pseudomonas aeruginosa isolate 27 (PDC allele: blaPDC-3)	2	–	≤ 4	2	–	2	4
Pseudomonas aeruginosa isolate 28 (ESBL gene: blaPAC-1, PDC allele: blaPDC-36)	> 8	–	≥ 32	> 8	–	≥ 16	> 8
Pseudomonas aeruginosa isolate 29 (ESBL gene: blaVEB-9, PDC allele: blaPDC-11, carbapenemase gene: blaNDM-1)	> 8	> 16	≥ 32	> 8	> 8	≥ 16	> 8
Pseudomonas aeruginosa isolate 30 (PDC allele: blaPDC-3)	4	≤ 4	8	2	4	4	≤ 1
Pseudomonas aeruginosa isolate 31 (ESBL gene: blaPAC-1, PDC allele: blaPDC-36)	> 8	–	≥ 32	> 8	–	≥ 16	8
Pseudomonas aeruginosa isolate 32 (PDC allele: blaPDC-3)	4	8	≤ 4	2	4	2	8
Pseudomonas aeruginosa isolate 33 (PDC allele: blaPDC-1)	–	≤ 4	≤ 4	–	≤ 1	≤ 1	2
Pseudomonas aeruginosa isolate 34 (PDC allele: blaPDC-8)	2	≤ 4	8	2	2	4	> 8
Pseudomonas aeruginosa isolate 35 (PDC allele: blaPDC-24)	4	–	8	2	–	4	> 8
Pseudomonas aeruginosa isolate 36 (PDC allele: blaPDC-3)	8	8	8	≤ 1	≤ 1	≤ 1	–
Pseudomonas aeruginosa isolate 37 (PDC allele: blaPDC-19a)	8	8	≤ 4	≤ 1	2	≤ 1	≤ 1
Pseudomonas aeruginosa isolate 38 (PDC allele: blaPDC-364)	8	–	8	≤ 1	–	≤ 1	> 8
Pseudomonas aeruginosa isolate 39 (PDC allele: blaPDC-10)	8	16	8	4	8	4	> 8
Pseudomonas aeruginosa isolate 40 (PDC allele: blaPDC-1)	> 8	> 16	≥ 32	4	8	8	2

Test System	MIC (ceftazidime; BD Phoenix panel) [µg/mL]	MIC (ceftazidime; Sensititre panel) [µg/mL]	MIC (ceftazidime; reference broth microdilution) [µg/mL]	MIC (ceftolozane; BD Phoenix panel) [µg/mL]	MIC (ceftolozane; Sensititre panel) [µg/mL]	MIC (ceftolozane; reference broth microdilution) [µg/mL]	MIC (imipenem) [µg/mL]
Pseudomonas aeruginosa isolate 41 (PDC allele: blaPDC-1, ftsI change: ftsI_R504C)	> 8	–	≥ 32	4	–	4	> 8
Pseudomonas aeruginosa isolate 42 (PDC allele: blaPDC-8)	2	–	≤ 4	≤ 1	–	≤ 1	≤ 1
Pseudomonas aeruginosa isolate 43 (PDC allele: blaPDC-24)	4	–	8	2	–	8	4
Pseudomonas aeruginosa isolate 44 (PDC allele: blaPDC-1)	1	≤ 4	≤ 4	≤ 1	2	≤ 1	8
Pseudomonas aeruginosa isolate 45 (PDC allele: blaPDC-1)	2	–	≤ 4	≤ 1	–	≤ 1	–
Pseudomonas aeruginosa isolate 46 (PDC allele: blaPDC-5)	> 8	–	8	≤ 1	–	2	≤ 1
Pseudomonas aeruginosa isolate 47 (PDC allele: blaPDC-3)	8	–	≥ 32	2	–	8	8
Pseudomonas aeruginosa isolate 53 (PDC allele: blaPDC-364)	8	–	–	≤ 1	–	–	–
Pseudomonas aeruginosa isolate 65 (PDC allele: blaPDC-8)	8	–	16	≤ 1	–	4	–
Pseudomonas aeruginosa isolate 68 (PDC allele: blaPDC-34)	4	–	≤ 4	≤ 1	–	≤ 1	–
Pseudomonas aeruginosa isolate 78 (PDC allele: blaPDC-53)	4	–	≤ 4	≤ 1	–	2	–
Pseudomonas aeruginosa isolate 87 (PDC allele: blaPDC-1)	> 8	–	> 16	≤ 1	–	4	–
Pseudomonas aeruginosa isolate 94 (PDC allele: blaPDC-6)	4	–	≤ 4	2	–	≤ 1	–
Pseudomonas aeruginosa isolate 96 (PDC allele: blaPDC-6)	8	–	16	4	–	4	–
Pseudomonas aeruginosa isolate 128 (PDC allele: blaPDC-16)	4	–	–	≤ 1	–	–	–
Pseudomonas aeruginosa isolate 130 (PDC allele: blaPDC-37)	8	–	16	2	–	4	–
Pseudomonas aeruginosa isolate 140 (ESBL gene: blaPAC-1, PDC allele: blaPDC-36)	> 8	–	–	> 8	–	–	–
Pseudomonas aeruginosa isolate 152 (PDC allele: blaPDC-41)	4	–	≤ 4	4	–	8	–
Pseudomonas aeruginosa isolate 163 (PDC allele: blaPDC-5)	2	–	≤ 4	2	–	4	–
Pseudomonas aeruginosa isolate 176 (PDC allele: blaPDC-36)	1	≤ 4	≤ 4	≤ 1	≤ 1	≤ 1	–
